From the supplement of paper PMC3334620
The full ranking holds about 33,000 sequences; the median of “E-score (-0.5 to 0.5)” is about -0.01, and the highest 2% start at about 0.26. Some of the results follow.

target: Ste12 (UniProt P13574); assay: PBM E-score (8-mer binding enrichment) (E-score (-0.5 to 0.5)); higher = stronger / more preferred TF binding; most listed sequences are background and not binding sites; conditions: protein concentration: 200 nM; construct: GST-DNA-binding domain
Method in brief: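 PURExpress in vitro transcription/translation supplied GST-tagged yeast transcription factors, either full-length or DNA-binding domain. Applied at about 100-200 nM to universal all-10-mer Agilent arrays double-stranded by primer extension, the bound protein was detected with fluorescent anti-GST. E-scores, modified Wilcoxon-Mann-Whitney statistics, were given by the Universal PBM Analysis Suite to ungapped eight-base words pooled with their reverse complements after masliner normalisation.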

Sequence	PBM E-score
CATTTTTA	0.0631
AGCTGCTA	-0.169
CACTAATC	-0.0304
GCTACGAC	-0.138
CACTTCTG	-0.194
TAGAGCCA	-0.0552
CATGAGTC	0.065
AATGAATC	0.16
CATCCATC	-0.154
GCGTCGAC	-0.0443
GTTCTTGA	-0.0164
ATTAGTAA	0.233
ATCGTTCG	-0.00358
GAGCCCTA	-0.0896
CACGAATC	0.195
CGTATACA	0.306
CCCTTACA	0.00527
CCGAGTGC	0.0654
AATCCTGA	0.105
CATGTTCA	-0.175
TGCTTTAA	0.199
GACGTTCA	-0.218
GCGGCCCA	0.151
CTATTCCC	-0.026
ATTGGGAA	0.0116

Sequence	PBM E-score
GGAAAACC	0.0776
GCCCGTCA	-0.179
CTACATTC	-0.0959
CTCGTCTC	-0.0177
ACAAGGAC	-0.129
CGTTATTA	0.0994
ACGTACGC	-0.149
CAAGCATC	-0.0619
GTAAGTTA	-0.1
ATCTGGTA	0.0775
AGACCTCC	-0.195
TATATATA	0.206
ATGCATGG	0.186
AGGGAATA	0.121
AGAACAGA	-0.0259
CTTTTGAC	0.0265
CGACCAAG	-0.244
TGGAAAAA	0.302
AGTACTAG	-0.0485
CATGCTCC	-0.254
AGTGCGGG	-0.212
ATTCCAGA	0.113
CATGGGGA	-0.0358
GATGTCAA	0.00597
TATCCGCA	0.135

Sequence	PBM E-score
GAGAATCA	-0.186
ATGTTCAC	0.0173
AGGCGCTG	-0.0252
CCGACATC	0.0762
GCCGTTTA	-0.132
CCTACGGA	-0.258
CGTTTGTA	0.17
GAAGTGGC	-0.159
CTCTTCAG	0.0202
CAACTGCA	-0.0177
AAATACAC	0.118
GGGCGACC	-0.137
GCGGAACA	0.0183
CAGCTAGG	-0.232
CACGTCTG	-0.138
ACGTCACA	-0.0545
CGATATAG	0.0562
CGGTGAAC	-0.0755
AAGACCGG	0.00993
GTCGTCCA	-0.0295
ACATATGA	0.0722
CGGACTCC	-0.0951
AGGGTTAG	-0.135
AACCTTGC	-0.0979
CTTTCAAC	0.0471

Sequence	PBM E-score
CCTCAGGC	-0.0588
ACCCTTAC	-0.0726
CGATAAAA	0.171
CAACATAA	0.189
CAAATCGG	0.109
GTGAGCAC	-0.148
CAGGTGCA	0.0488
AATGGGAC	-0.0804
CACGATCG	0.00354
CTTGAGGA	-0.147
ATTATGAC	0.0915
CGGGACCC	-0.0564
ACCCGTCA	-0.124
AGTGCAAA	0.101
CTTTGTTA	0.219
CACGCTCG	-0.0789
AGCGCCCC	-0.033
ACAAGAAC	0.175
GAGGTAAC	0.0397
CCGCCATC	-0.158
TATCTACA	0.0727
CTAATCAG	0.086
ACGGGGCT	-0.0518
CAGCACAA	-0.0375
GTTGATTA	0.0985

Sequence	PBM E-score
CTTCTATC	0.0372
CCGGCCTA	-0.0506
AAGCCAGC	0.00351
CCGCATTC	-0.0434
ACCACTCA	-0.127
CCTCGCCC	0.186
CAACCCTA	-0.099
ATAGTCGC	0.123
CGTGGCTC	-0.314
ATGTGAGA	0.187
ATTACTCG	0.0424
ATACTGTG	-0.135
ATCATTAC	0.152
GTAGCTTA	-0.064
CATCCTCC	-0.123
AGAACTTG	0.0625
AATGGCTG	-0.00793
CGCGGCCA	0.0408
GGCGTCAA	0.154
ACCCGCAT	0.191
ATTTTGTG	0.281
CCACAGCG	-0.175
GCCCGCCA	-0.0776
CAGCTTAG	-0.213
ATTTGCAC	-0.248

Sequence	PBM E-score
CTGTCGCA	0.0809
ATAACGGC	-0.0187
ATTGCTTA	0.115
ACCAGAAT	0.025
ACACATCG	-0.0113
CATAAACG	0.193
GAGTAAGC	-0.0348
ATACTCAC	-0.0618
CGTACATC	-0.0613
ATGAGGGG	0.0641
GGTGCTAC	-0.125
CCGGATTA	0.173
AGCGGACC	-0.264
GATTAGAC	-0.00297
GCACATGC	-0.0778
AACCGCAC	-0.0467
CCAACTGC	-0.132
ACAGCGGA	0.00891
AAGCGGGA	-0.132
CACCGAGA	0.0186
AGATACAA	0.135
GGGTCAGA	-0.18
CTCTACAA	0.0124
TTATATAA	0.176
GAGCATGC	-0.141

Sequence	PBM E-score
AGCGGCGG	0.102
AGCATATA	0.0944
CACAATGG	-0.0649
CATCATTA	0.221
ACATGAAG	0.091
CGCCCCAG	0.0509
CCTTGATC	-0.0305
GAGCCTCC	-0.0549
TAGATGCA	-0.0757
ACTGTTCC	-0.139
ACATATCC	-0.0935
AAGTTAAT	0.0233
AAATTGTC	0.268
AAGTCCCG	-0.111
ACGAGAAA	0.16
AGCTTTGC	-0.0525
AACAGCGG	0.0491
TCTCGAAA	0.0747
CGGGCTAG	-0.131
GGTGGAAC	-0.0854
ACGTTACA	0.164
TGCGGAAA	0.148
